Data on 90 compounds can be found in PubChem BioAssay AID463173 (ICCB-Longwood Screening Facility, Harvard Medical School, 2010).

Out of some 52,000 compounds screened, about 4,300 (8.3%) were called active. Rule as the data show it: active = survival mostly below about 52% (no sharp cut-off); inactive = mostly above about 56%. Some of the results follow.

In this test the test system is DeltatarO mutant. In words: S. aureus survival, RN4220 and DeltatarO strains – OD600, teichoic acid synthesis inhibitors, primary screen (AID 463173). Particulars: S. aureus RN4220 wild type/DeltatarO growth, OD600, 18 h, stronger effect = lower value, screened at 18.75 µg/mL (by protocol).
On to `CCOc1ccc(-n2c(=O)c3c4c(sc3n(Cc3cccc(Cl)c3)c2=O)CCCC4)cc1`, for which the survival was inactive: 68%.

For the compound `CCCNC(=O)N1CCc2cc(OC)c(OC)cc2C1c1cc2cc3c(cc2[nH]c1=O)OCO3` (stereo not given), the survival is inactive: 91%.

Regarding `O=C(NCC(c1ccc2c(c1)OCO2)N1CCOCC1)c1ccc(F)cc1` (stereo not given), the survival was inactive: 55%. For `Cc1ccc(/C=C(\C#N)c2nc(-c3cc4c(ccc5ccccc54)oc3=O)cs2)cc1`, the survival was inactive: 122%. As for `CCCC(=O)N(c1ccc2oc(-c3ccccc3)c(C(=O)OCC)c2c1)S(=O)(=O)c1ccc(C)cc1`, the figure is inactive: 140%; as for `COCCCNC(=O)Cn1c(=O)n(CCCC(=O)NCc2ccc(C)cc2)c(=O)c2ccccc21`, inactive: 101%. As for `CCCCN1CC(c2nc3ccccc3n2CCCCOc2c(C)cccc2C)CC1=O` (stereo not given), the figure is active: 46%; as for `CCN(C(=O)c1sc2nc3n(c(=O)c2c1C)CCCCC3)c1ccccc1F`, inactive: 51%; as for `CCc1ccc(CNC(=O)c2cc3c(=O)oc4ccc(C)cc4c3s2)cc1`, inactive: 82%. As for `Cc1ccc(NC(=O)Nc2nnc(N3CCCCC3)s2)c(C)c1`, the figure is inactive: 100%; as for `COc1ccc(NC(=O)c2ccc3snnc3c2)cc1OC`, inactive: 113%. Turning to `COc1cc(OC)cc(-n2c(=O)[nH]c3cc(C(=O)NCCc4ccc(C)cc4)ccc3c2=O)c1`, the survival was inactive: 77%. As for `CCNc1nc(NCC)nc(N(n2cnnc2)S(=O)(=O)c2ccc(C)cc2)n1`, the figure is active: 1%; as for `Cn1cc(C(=O)NCc2ccc(F)cc2)c(=O)c2cc(S(=O)(=O)N3CCCCC3)ccc21`, inactive: 59%. As to `O=C(CCSCc1ccccc1F)N1CCN(c2ccc(F)cc2)CC1`, the survival is inactive: 91%.

Turning to `COc1cc(OC)c(NC(=O)c2oc3ccc4c(c3c2C)C(=O)CC(C)(C)O4)cc1Cl`, the survival is inactive: 106%. As for `CCOc1ccccc1NC(=O)Cn1c(=O)n(Cc2ccc(C(=O)NCCCOC)cc2)c(=O)c2ccccc21`, the figure is inactive: 81%. As for `CC(C)c1ccc(Nc2nc3ccc(C(=O)c4ccccc4)cc3n3cnnc23)cc1`, the figure is inactive: 81%; as for `O=C(NC1CCCCC1)C(Cc1ccccc1)N1C(=O)C2C3C=CC(C3)C2C1=O` (stereo not given), inactive: 92%; as for `O=C(Cn1cnc2ccccc2c1=O)Nc1ccc(S(=O)(=O)Nc2nccs2)cc1`, inactive: 72%. As for `COC(=O)c1ccccc1NC(=O)c1nc(SCc2ccccc2C)ncc1Cl`, the figure is inactive: 79%. On to `Cc1cc(C)cc(C(=O)Nc2ccc(-c3cn4cccnc4n3)cc2)c1`, for which the survival was inactive: 68%.

As to `Cn1c(=O)c(C(=O)NCCN2CCNCC2)c(O)c2ccccc21`, the survival is inactive: 68%. As for `COc1ccc(-n2cc3c(c2-c2cccc(Br)c2)c(=O)n(C)c(=O)n3C)cc1OC`, the figure is inactive: 80%; as for `COc1cccc(NC(=O)Cn2c(=O)n(Cc3ccccc3)c(=O)c3c4c(sc32)CN(C(C)=O)CC4)c1`, inactive: 103%. As for `COc1ccc(-c2cc(C(F)(F)F)nc(SCC(=O)NCc3ccc(F)cc3)n2)cc1`, the survival is inactive: 74%.

For the compound `CCCSc1nsc(NC(=O)CC)n1`, the survival was inactive: 96%. Regarding `CCCCc1ccc(NC(=O)Cn2cnc3c2c(=O)n(C)c(=O)n3C)cc1`, the survival was inactive: 120%. As for `Cc1cccc(NC(=O)Cn2c(=O)n(Cc3ccc4c(c3)OCO4)c(=O)c3ccccc32)c1`, the figure is inactive: 66%; as for `CCS(=O)(=O)c1c(Nc2ccc(F)c(Cl)c2)sc(C(=O)c2ccccc2)c1N`, inactive: 60%. As to `O=C(C1CCC1)N1CCN(c2ccccc2)CC1`, the survival is inactive: 93%.

Regarding `CCOc1ccc(-c2ccc(NS(=O)(=O)c3cc(C)ccc3OC)cc2)nn1`, the survival is inactive: 86%. As for `Cc1ccc(-c2nnn(CC(=O)N(Cc3ccccc3)C(C(=O)NC3CCCC3)c3ccco3)n2)cc1` (stereo not given), the figure is inactive: 64%. For the compound `Cc1c(CNCCCc2ccccc2)c(C(=O)O)c(C)n1Cc1ccc(Cl)cc1`, the survival is inactive: 72%. As for `Cc1cc(=O)[nH]c2nnc(SCc3cccc(F)c3)n12`, the figure is inactive: 87%; as for `Cc1ccc(Cn2cc(CCC(=O)NC3CCCCC3)c3ccccc32)cc1`, inactive: 83%; as for `COc1ccc(S(=O)(=O)NC2(C(F)(F)F)NC(=O)N(CCc3ccccc3)C2=O)cc1` (stereo not given), inactive: 99%. As for `CCCCCSc1nnc2c(n1)OC(c1ccc(C)s1)N(C(C)=O)c1ccccc1-2` (stereo not given), the figure is active: 45%. As for `Cc1cccc(N2CCN(C(=O)Nc3ccc(F)cc3)CC2C)c1` (stereo not given), the figure is inactive: 90%. With `Cc1c(Cl)cccc1N1CC(c2nc3ccccc3n2Cc2ccccc2F)CC1=O` (stereo not given), the survival was inactive: 41%. As for `Oc1ccccc1-c1nc(/C=C/c2ccc(F)cc2)no1`, the figure is inactive: 79%; as for `COC(=O)c1ccc(CSc2nc3ccccc3o2)cc1`, inactive: 97%. As for `COc1ccccc1NC(=O)CN1C(=O)C(c2ccc(F)cc2)=NC1(C)C`, the figure is inactive: 93%; as for `O=C(N1CCC(O)(c2cccnc2)CC1)C12CC3CC(CC(C3)C1)C2`, inactive: 99%; as for `Cc1ccccc1Cn1c(CCCNC(=O)C2CCCCC2)nc2ccccc21`, inactive: 90%. As for `Cc1cccc(OCc2nnc(SCC(=O)Nc3ccc(C)cc3C)o2)c1`, the figure is inactive: 139%; as for `Cc1ccccc1Cn1c(SCc2ccc(C(=O)NCc3cccs3)cc2)nc2ccncc21`, inactive: 106%. With `COc1ccc(S(=O)(=O)N(Cc2nc(-c3cccc(C)c3)no2)C2CCCCC2)cc1`, the survival is inactive: 57%. In the case of `Cc1ccc2[nH]cc(NC(=O)N3CCCCC3)c(=O)c2c1`, the survival was inactive: 96%. Turning to `CCCSCCCNC(=O)C1CCN(C(=O)c2cc3sccc3n2C)CC1`, the survival was inactive: 109%. As for `COc1ccccc1N1CCN(S(=O)(=O)c2ccc3c(c2)oc(=O)n3C)CC1`, the figure is inactive: 89%; as for `Cc1nnc(N2CCC(C(=O)NC(C)C)CC2)c2nn(-c3ccc(Cl)cc3)c(C)c12`, inactive: 74%; as for `CCCC(=O)Nc1cccc(-c2nc3ccccc3c(=O)o2)c1`, inactive: 98%. As for `CCSc1ncnc2c(-c3ccc(OC)cc3)nsc12`, the figure is inactive: 97%. Consider `Cc1cccc(NC(=O)Cn2c(=O)n(Cc3ccc(C(=O)NCc4ccc5c(c4)OCO5)cc3)c(=O)c3ccccc32)c1`, for which the survival is inactive: 95%. As for `O=C(CCn1c(=O)c2cccn2c2ccc(F)cc21)NCc1ccccc1F`, the figure is active: 45%; as for `Cc1ccc(NC(=O)CSc2nc(-c3ccc(F)cc3)cc(C(F)(F)F)c2C#N)cc1`, inactive: 63%. As for `CCOc1ccc(C(=O)c2cn(CC(=O)Nc3cc(OC)cc(OC)c3)c3ccc(F)cc3c2=O)cc1`, the survival was inactive: 66%.

On to `COc1ccc(C(=O)SC2=NCCS2)cc1`, for which the survival was inactive: 103%. As for `COc1ccc(-c2c(C#N)c(SCC(=O)Nc3ccccc3C)nc(C)c2C(=O)Nc2ccccc2)cc1OC`, the figure is inactive: 95%; as for `CC(=O)Nc1cccc(NC(=O)Cn2c(-c3cccnc3)ccc(C#N)c2=O)c1`, inactive: 77%. As for `COCCCNC(=O)CSc1nc(-c2cccc(F)c2)[nH]c1-c1ccccc1`, the figure is inactive: 86%; as for `O=C(CN1CCN(Cc2ccccc2Cl)C1=O)NCc1ccccc1Cl`, inactive: 67%. As for `COc1ccc(CCN2C(=O)N(c3ccc(F)cc3)C(=O)C2CC(=O)Nc2ccccc2)cc1` (stereo not given), the figure is inactive: 66%. On to `N#C/C(=C\c1ccc(Cl)cc1)C(=O)NCC1CCCO1` (stereo not given), for which the survival is active: 44%.

With `CCN(CCCNC(=O)c1cc2c(=O)[nH]c3ccccc3c2s1)c1ccccc1`, the survival was inactive: 72%. As for `CCC1CCCCN1S(=O)(=O)c1ccc(NC(=O)c2cc(=O)c3ccccc3o2)cc1` (stereo not given), the figure is inactive: 79%. As for `CCCCOc1ccc(C2c3c(-c4ccccc4O)n[nH]c3C(=O)N2Cc2ccncc2)cc1OC` (stereo not given), the figure is inactive: 61%; as for `O=S(=O)(c1ccc(-n2cnnn2)cc1)N1CCN(c2ccccc2F)CC1`, inactive: 77%.

Consider `CCCCn1nnnc1SCC(=O)c1cc(OC)ccc1OC`, for which the survival is inactive: 92%. As for `Cc1c2cnn(CC(=O)NCc3ccccc3)c(=O)c2c(C)n1Cc1cccc(Cl)c1`, the figure is inactive: 60%. As for `Cc1ccc(C=N/C(=N\NC(=O)c2ccccc2)c2ccccc2)o1`, the figure is inactive: 94%. As for `CC(=O)c1cccc(NC(=O)Cn2c(SCC(=O)Nc3ccc(F)cc3)nc3ccccc32)c1`, the figure is active: 20%; as for `N#Cc1ccc2ccn(CC(N)=O)c2c1`, inactive: 83%; as for `CCOc1ccc(-n2c(C)nc3c(cnn3-c3ccc(C)cc3)c2=O)cc1`, inactive: 76%. As for `COc1ccc(C2c3cccn3CCN2S(=O)(=O)c2ccccc2[N+](=O)[O-])cc1OC` (stereo not given), the survival is inactive: 124%. For the compound `COC(=O)[n+]1ccc(N2CCOCC2)cc1`, the survival is inactive: 94%.

In the case of `O=C(NCc1ccccc1)c1nnc(Cc2cccc(F)c2)o1`, the survival is inactive: 85%. As for `CCc1ccc(CNC(=O)CCc2c(C)nn(-c3ccc(N4CCCCC4)nn3)c2C)cc1`, the figure is inactive: 77%. As for `O=C(NCC(c1ccc2c(c1)OCO2)N1CCOCC1)c1ccccc1F` (stereo not given), the figure is inactive: 92%; as for `CC(CNC(=O)Cn1ccc2cc(S(=O)(=O)N3CCCCC3)ccc21)c1ccccc1` (stereo not given), inactive: 87%; as for `CCc1cnc2c(c1SCC(=O)Nc1ccc(Cl)cc1)c(=O)n(C)c(=O)n2C`, inactive: 117%. As for `COc1ccc(-c2cc(C(F)F)n3ncc(C(=O)Nc4cc(OC)ccc4OC)c3n2)cc1`, the figure is active: 51%; as for `COc1ccccc1CNC(=O)Cn1c(=O)oc2cc(S(=O)(=O)N3CCC(C)CC3)ccc21`, inactive: 143%. For `COc1cccc(CNCCSc2nnnn2C)c1OCc1ccc(Cl)cc1Cl`, the survival was inactive: 69%.

In the case of `COc1ccccc1NC(=O)CSc1ccc(-c2sc(C)nc2C)nn1`, the survival is inactive: 92%. Consider `CNc1nc(-c2ccc3c(c2)CCN3S(=O)(=O)c2ccccc2)cs1`, for which the survival was inactive: 86%. As for `CCC(Nc1ccc(-c2nc(-c3ccco3)no2)cc1[N+](=O)[O-])c1ccccc1` (stereo not given), the figure is inactive: 53%.

For `CCn1c(CNC(=O)c2ccc(OC)cc2)nnc1SCC(=O)Nc1cccc(C)c1C`, the survival was inactive: 132%. As for `COc1cccc(Cn2c(=O)n(-c3cccc(Cl)c3C)c(=O)c3c4c(sc32)CN(C(C)=O)CC4)c1`, the figure is inactive: 101%.
